Measurements: patent publication US20210238308A1 (Chugai, published 2021)

T1: human TRIM21 PRYSPRY domain with N-terminal 6xHis tag (human)
T1 construct: Expressed from pET28a in E. coli; also called hTRIM21
T1 chain: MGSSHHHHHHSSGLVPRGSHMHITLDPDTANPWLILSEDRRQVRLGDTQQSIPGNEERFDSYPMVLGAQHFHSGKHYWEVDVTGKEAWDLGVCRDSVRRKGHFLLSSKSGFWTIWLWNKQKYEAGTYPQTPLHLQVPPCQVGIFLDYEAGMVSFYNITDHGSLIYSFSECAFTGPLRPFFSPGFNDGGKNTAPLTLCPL

T2: mouse TRIM21 PRYSPRY domain with N-terminal 6xHis tag (mouse)
T2 construct: Expressed from pET28a in E. coli; also called mTRIM21
T2 chain: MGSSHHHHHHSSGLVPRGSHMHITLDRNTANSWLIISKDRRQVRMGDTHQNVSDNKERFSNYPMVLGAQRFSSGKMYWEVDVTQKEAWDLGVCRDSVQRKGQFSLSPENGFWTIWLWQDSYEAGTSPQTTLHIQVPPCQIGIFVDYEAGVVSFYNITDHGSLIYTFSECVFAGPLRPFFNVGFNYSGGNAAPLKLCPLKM


How the values were obtained:
[1] = molecular target: T3, human FcRn (human, UniProt P55899 fragment; P61769 fragment, limits assumed); assay: SPR pH 6.0, Ab captured on Protein L, 1 uM hFcRn
T3 construct: also called hFcRn

[2] = molecular target: T1, human TRIM21 PRYSPRY domain with …; assay: SPR, Ab captured on Protein L, 100 nM hTRIM21
[3] = molecular target: T2, mouse TRIM21 PRYSPRY domain with …; assay: SPR, Ab captured on Protein L, 100 nM mTRIM21

Row | hFcRn binding level ratio (variant/control antibody) [1] | hTRIM21 binding level ratio (variant/control antibody) [2] | mTRIM21 binding level ratio (variant/control antibody) [3] | Binder
1 | 0.88 | 1.31 | 2 | MRAH-G1d/MRAL-KT0 S440D (antibody) heavy: QVQLQESGPGLVRPSQTLSLTCTVSGYSITSDHAWSWVRQPPGRGLEWIGYISYSGITTYNPSLKSRVTMLRDTSKNQFSLRLSSVTAADTAVYYCARSLARTTAMDYWGQGSLVTVSS[human IgG1 constant region with S440D (EU numbers) omitted here] light: DIQMTQSPSSLSASVGDRVTITCRASQDISSYLNWYQQKPGKAPKLLIYYTSRLHSGVPSRFSGSGSGTDFTFTISSLQPEDIATYYCQQGNTLPYTFGQGTKVEIKRTVAAPSVFIFPPSDEQLKSGTASVVCLLNNFYPREAKVQWKVDNALQSGNSQESVTEQDSKDSTYSLSSTLTLSKADYEKHKVYACEVTHQGLSSPVTKSFNRGEC
2 | 0.91 | 0.924 | 1.86 | MRAH-G1d/MRAL-KT0 Q438Y (antibody, human IgG1, kappa) heavy: QVQLQESGPGLVRPSQTLSLTCTVSGYSITSDHAWSWVRQPPGRGLEWIGYISYSGITTYNPSLKSRVTMLRDTSKNQFSLRLSSVTAADTAVYYCARSLARTTAMDYWGQGSLVTVSS[human IgG1 constant region with Q438Y (EU numbers) omitted here] light: DIQMTQSPSSLSASVGDRVTITCRASQDISSYLNWYQQKPGKAPKLLIYYTSRLHSGVPSRFSGSGSGTDFTFTISSLQPEDIATYYCQQGNTLPYTFGQGTKVEIKRTVAAPSVFIFPPSDEQLKSGTASVVCLLNNFYPREAKVQWKVDNALQSGNSQESVTEQDSKDSTYSLSSTLTLSKADYEKHKVYACEVTHQGLSSPVTKSFNRGEC
3 | 0.54 | 0.898 | 2.35 | MRAH-G1d/MRAL-KT0 S440A (antibody) heavy: QVQLQESGPGLVRPSQTLSLTCTVSGYSITSDHAWSWVRQPPGRGLEWIGYISYSGITTYNPSLKSRVTMLRDTSKNQFSLRLSSVTAADTAVYYCARSLARTTAMDYWGQGSLVTVSS[human IgG1 constant region with S440A (EU numbers) omitted here] light: DIQMTQSPSSLSASVGDRVTITCRASQDISSYLNWYQQKPGKAPKLLIYYTSRLHSGVPSRFSGSGSGTDFTFTISSLQPEDIATYYCQQGNTLPYTFGQGTKVEIKRTVAAPSVFIFPPSDEQLKSGTASVVCLLNNFYPREAKVQWKVDNALQSGNSQESVTEQDSKDSTYSLSSTLTLSKADYEKHKVYACEVTHQGLSSPVTKSFNRGEC
4 | 0.97 | 0.755 | 2.21 | MRAH-G1d/MRAL-KT0 Q438T (antibody, human IgG1, kappa) heavy: QVQLQESGPGLVRPSQTLSLTCTVSGYSITSDHAWSWVRQPPGRGLEWIGYISYSGITTYNPSLKSRVTMLRDTSKNQFSLRLSSVTAADTAVYYCARSLARTTAMDYWGQGSLVTVSS[human IgG1 constant region with Q438T (EU numbers) omitted here] light: DIQMTQSPSSLSASVGDRVTITCRASQDISSYLNWYQQKPGKAPKLLIYYTSRLHSGVPSRFSGSGSGTDFTFTISSLQPEDIATYYCQQGNTLPYTFGQGTKVEIKRTVAAPSVFIFPPSDEQLKSGTASVVCLLNNFYPREAKVQWKVDNALQSGNSQESVTEQDSKDSTYSLSSTLTLSKADYEKHKVYACEVTHQGLSSPVTKSFNRGEC

Further lines, the binder ahead of its results:

Row | Binder | hFcRn binding level ratio (variant/control antibody) [1] | hTRIM21 binding level ratio (variant/control antibody) [2] | mTRIM21 binding level ratio (variant/control antibody) [3]
5 | MRAH-G1d/MRAL-KT0 Q438E (antibody, human IgG1, kappa) heavy: QVQLQESGPGLVRPSQTLSLTCTVSGYSITSDHAWSWVRQPPGRGLEWIGYISYSGITTYNPSLKSRVTMLRDTSKNQFSLRLSSVTAADTAVYYCARSLARTTAMDYWGQGSLVTVSS[human IgG1 constant region with Q438E (EU numbers) omitted here] light: DIQMTQSPSSLSASVGDRVTITCRASQDISSYLNWYQQKPGKAPKLLIYYTSRLHSGVPSRFSGSGSGTDFTFTISSLQPEDIATYYCQQGNTLPYTFGQGTKVEIKRTVAAPSVFIFPPSDEQLKSGTASVVCLLNNFYPREAKVQWKVDNALQSGNSQESVTEQDSKDSTYSLSSTLTLSKADYEKHKVYACEVTHQGLSSPVTKSFNRGEC | 0.84 | 1.35 | 2.4
6 | MRAH-G1d/MRAL-KT0 Q438S (antibody, human IgG1, kappa) heavy: QVQLQESGPGLVRPSQTLSLTCTVSGYSITSDHAWSWVRQPPGRGLEWIGYISYSGITTYNPSLKSRVTMLRDTSKNQFSLRLSSVTAADTAVYYCARSLARTTAMDYWGQGSLVTVSS[human IgG1 constant region with Q438S (EU numbers) omitted here] light: DIQMTQSPSSLSASVGDRVTITCRASQDISSYLNWYQQKPGKAPKLLIYYTSRLHSGVPSRFSGSGSGTDFTFTISSLQPEDIATYYCQQGNTLPYTFGQGTKVEIKRTVAAPSVFIFPPSDEQLKSGTASVVCLLNNFYPREAKVQWKVDNALQSGNSQESVTEQDSKDSTYSLSSTLTLSKADYEKHKVYACEVTHQGLSSPVTKSFNRGEC | 0.91 | 0.744 | 2.21
7 | MRAH-G1d/MRAL-KT0 Q438R (antibody, human IgG1, kappa) heavy: QVQLQESGPGLVRPSQTLSLTCTVSGYSITSDHAWSWVRQPPGRGLEWIGYISYSGITTYNPSLKSRVTMLRDTSKNQFSLRLSSVTAADTAVYYCARSLARTTAMDYWGQGSLVTVSS[human IgG1 constant region with Q438R (EU numbers) omitted here] light: DIQMTQSPSSLSASVGDRVTITCRASQDISSYLNWYQQKPGKAPKLLIYYTSRLHSGVPSRFSGSGSGTDFTFTISSLQPEDIATYYCQQGNTLPYTFGQGTKVEIKRTVAAPSVFIFPPSDEQLKSGTASVVCLLNNFYPREAKVQWKVDNALQSGNSQESVTEQDSKDSTYSLSSTLTLSKADYEKHKVYACEVTHQGLSSPVTKSFNRGEC | 0.97 | 0.404 | 1.71
8 | MRAH-G1d/MRAL-KT0 Q438M (antibody, human IgG1, kappa) heavy: QVQLQESGPGLVRPSQTLSLTCTVSGYSITSDHAWSWVRQPPGRGLEWIGYISYSGITTYNPSLKSRVTMLRDTSKNQFSLRLSSVTAADTAVYYCARSLARTTAMDYWGQGSLVTVSS[human IgG1 constant region with Q438M (EU numbers) omitted here] light: DIQMTQSPSSLSASVGDRVTITCRASQDISSYLNWYQQKPGKAPKLLIYYTSRLHSGVPSRFSGSGSGTDFTFTISSLQPEDIATYYCQQGNTLPYTFGQGTKVEIKRTVAAPSVFIFPPSDEQLKSGTASVVCLLNNFYPREAKVQWKVDNALQSGNSQESVTEQDSKDSTYSLSSTLTLSKADYEKHKVYACEVTHQGLSSPVTKSFNRGEC | 0.95 | 0.971 | 1.8
9 | MRAH-G1d/MRAL-KT0 Q438G (antibody, human IgG1, kappa) heavy: QVQLQESGPGLVRPSQTLSLTCTVSGYSITSDHAWSWVRQPPGRGLEWIGYISYSGITTYNPSLKSRVTMLRDTSKNQFSLRLSSVTAADTAVYYCARSLARTTAMDYWGQGSLVTVSS[human IgG1 constant region with Q438G (EU numbers) omitted here] light: DIQMTQSPSSLSASVGDRVTITCRASQDISSYLNWYQQKPGKAPKLLIYYTSRLHSGVPSRFSGSGSGTDFTFTISSLQPEDIATYYCQQGNTLPYTFGQGTKVEIKRTVAAPSVFIFPPSDEQLKSGTASVVCLLNNFYPREAKVQWKVDNALQSGNSQESVTEQDSKDSTYSLSSTLTLSKADYEKHKVYACEVTHQGLSSPVTKSFNRGEC | 0.85 | 0.632 | 1.99
10 | MRAH-G1d/MRAL-KT0 Q438H (antibody, human IgG1, kappa) heavy: QVQLQESGPGLVRPSQTLSLTCTVSGYSITSDHAWSWVRQPPGRGLEWIGYISYSGITTYNPSLKSRVTMLRDTSKNQFSLRLSSVTAADTAVYYCARSLARTTAMDYWGQGSLVTVSS[human IgG1 constant region with Q438H (EU numbers) omitted here] light: DIQMTQSPSSLSASVGDRVTITCRASQDISSYLNWYQQKPGKAPKLLIYYTSRLHSGVPSRFSGSGSGTDFTFTISSLQPEDIATYYCQQGNTLPYTFGQGTKVEIKRTVAAPSVFIFPPSDEQLKSGTASVVCLLNNFYPREAKVQWKVDNALQSGNSQESVTEQDSKDSTYSLSSTLTLSKADYEKHKVYACEVTHQGLSSPVTKSFNRGEC | 0.38 | 0.649 | 2.11
11 | MRAH-G1d/MRAL-KT0 Q438L (antibody, human IgG1, kappa) heavy: QVQLQESGPGLVRPSQTLSLTCTVSGYSITSDHAWSWVRQPPGRGLEWIGYISYSGITTYNPSLKSRVTMLRDTSKNQFSLRLSSVTAADTAVYYCARSLARTTAMDYWGQGSLVTVSS[human IgG1 constant region with Q438L (EU numbers) omitted here] light: DIQMTQSPSSLSASVGDRVTITCRASQDISSYLNWYQQKPGKAPKLLIYYTSRLHSGVPSRFSGSGSGTDFTFTISSLQPEDIATYYCQQGNTLPYTFGQGTKVEIKRTVAAPSVFIFPPSDEQLKSGTASVVCLLNNFYPREAKVQWKVDNALQSGNSQESVTEQDSKDSTYSLSSTLTLSKADYEKHKVYACEVTHQGLSSPVTKSFNRGEC | 1.12 | 0.887 | 1.89
